Data on 39 sequences can be found in PMC4081100.

The list shows a part of the results, in another mix than the full data. For part of these data: At the low end of the ranking the order means little. The list shows a part of the results. For part of these data: The exact form of the protein is not confirmed.

For one assay, the target named is T1, GST-VOZ2 (Arabidopsis thaliana) (UniProt Q9SLB9).
T1 sequence: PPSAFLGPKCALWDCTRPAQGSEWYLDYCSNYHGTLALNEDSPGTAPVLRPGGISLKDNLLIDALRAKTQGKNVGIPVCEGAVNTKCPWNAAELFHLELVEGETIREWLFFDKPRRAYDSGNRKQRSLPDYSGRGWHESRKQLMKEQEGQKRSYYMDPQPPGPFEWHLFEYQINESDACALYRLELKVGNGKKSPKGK
In words: universal protein binding microarray (PBM). As to conditions: high values mean tight binding; double strand, one strand shown.
Regarding ACGCCATC, the binding signal stood at 0.0261 E-score.
For the sequence CCACACGC, the binding signal was 0.195 E-score.
Take GAGGAAAA: the binding signal came out at 0.0936 E-score.
ACGCAAAC: the binding signal is 0.164 E-score.
Same read-out and setting: under ACGTAACA stands 0.0617 E-score.
Sequence ACCCCGCC came in with a binding signal of 0.401 E-score.
Still for that read-out and setting: under ATGCCGTA stands -0.0205 E-score.
Still for that read-out and setting: the figure for ATGCGTAA is 0.137 E-score; for TGAAGGAA it is -0.0326 E-score.
The sequence AGCGTAAA showed a binding signal of 0.122 E-score.
In turn, ACGCAACT came in with a binding signal of 0.237 E-score.
GTAAGTAA yielded a binding signal of 0.156 E-score.
The sequence GTACGTTA displayed a binding signal of 0.14 E-score.
With GTGAAGAA, the binding signal is 0.162 E-score.
Sequence CACGCTTC came in with a binding signal of 0.0148 E-score.
CACGCTAA: the binding signal stood at 0.0699 E-score.
Still for that read-out and setting: the figure for ACCTTAAC is 0.0943 E-score; for ACGCTTCC it is 0.0528 E-score.
Regarding CTTGCGTC, the binding signal stood at 0.0382 E-score.
GCGTAATA showed a binding signal of 0.157 E-score.
As to CGTTTCCC, the binding signal turned out to be 0.0741 E-score.
Take GGAAGTAA: the binding signal came to 0.00189 E-score.
The same measure, in the same setting: the figure for CACGTTAC is 0.0205 E-score.
In turn, CCCCACCC registered a binding signal of 0.428 E-score.
On to GCAAGAAA, for which the binding signal was found to be 0.0298 E-score.
On to ACGTAACG, for which the binding signal was -0.00534 E-score.
Same read-out and setting: under ACCTTTCC stands 0.0964 E-score; under GAAGGGAA, 0.0922 E-score; under AACGTAAT, 0.108 E-score.
Still for that read-out and setting: the figure for TAGCGTAA is 0.317 E-score; for ACGCTATC it is 0.177 E-score.
Consider GAAGGAAA, for which the binding signal was -0.00646 E-score.
Sequence GTAAGGAA returned a binding signal of 0.159 E-score.
AGCTTTCC: the binding signal stood at 0.0254 E-score.
For AACGTACG, the binding signal came to 0.176 E-score.
On to CTACACGC, for which the binding signal worked out at 0.0782 E-score.
AACACGCC gave a binding signal of 0.0299 E-score.
AAGTAATC registered a binding signal of -0.0442 E-score.
Regarding AGGAAAGC, the binding signal is -0.00244 E-score.

Another assay deals with GST-WRKY1(266-371) (UniProt Q9SI37). The assay can be described thus: universal protein binding microarray (PBM). Conditions: transcription factors of Arabidopsis thaliana; high values mean tight binding; most listed sequences are background and not binding sites; double strand, one strand shown.
As for ACGCCATC, the binding signal was -0.0865 E-score.
Same read-out and setting: under CCACACGC stands -0.00534 E-score; under GAGGAAAA, -0.0849 E-score.
Turning to ACGCAAAC, the binding signal was -0.145 E-score.
Still for that read-out and setting: the figure for ACGTAACA is 0.0346 E-score; for ACCCCGCC it is -0.00153 E-score; for ATGCCGTA it is 0.0492 E-score.
ATGCGTAA came in with a binding signal of -0.063 E-score.
Regarding TGAAGGAA, the binding signal was -0.195 E-score.
Sequence AGCGTAAA had a binding signal of -0.0223 E-score.
ACGCAACT had a binding signal of -0.0613 E-score.
For the sequence GTAAGTAA, the binding signal turned out to be 0.122 E-score.
GTACGTTA returned a binding signal of -0.119 E-score.
GTGAAGAA: the binding signal is 0.0465 E-score.
Turning to CACGCTTC, the binding signal was -0.0401 E-score.
The sequence CACGCTAA yielded a binding signal of -0.0903 E-score.
ACCTTAAC: the binding signal was determined as 0.0435 E-score.
For ACGCTTCC, the binding signal is -0.165 E-score.
As for CTTGCGTC, the binding signal was 0.0999 E-score.
Turning to GCGTAATA, the binding signal is -0.0868 E-score.
Sequence CGTTTCCC registered a binding signal of -0.056 E-score.
Same read-out and setting: the figure for GGAAGTAA is -0.0759 E-score; for CACGTTAC it is -0.0786 E-score.
Still for that read-out and setting: under CCCCACCC stands -0.123 E-score.
Still for that read-out and setting: under GCAAGAAA stands 0.0436 E-score; under ACGTAACG, 0.078 E-score.
On to ACCTTTCC, for which the binding signal turned out to be 0.0425 E-score.
In the case of GAAGGGAA, the binding signal is -0.242 E-score.
The same measure, in the same setting: under AACGTAAT stands 0.00175 E-score.
On to TAGCGTAA, for which the binding signal was -0.0948 E-score.
Turning to ACGCTATC, the binding signal was -0.0124 E-score.
Sequence GAAGGAAA returned a binding signal of -0.137 E-score.
Turning to GTAAGGAA, the binding signal was determined as 0.0463 E-score.
Still for that read-out and setting: under AGCTTTCC stands -0.183 E-score; under AACGTACG, -0.0246 E-score; under CTACACGC, -0.114 E-score.
Consider AACACGCC, for which the binding signal is 0.0102 E-score.
The sequence AAGTAATC came in with a binding signal of -0.0652 E-score.
AGGAAAGC displayed a binding signal of -0.126 E-score.
